In the test the test system is SPM-1. Kind of test: Hydrolysis of avibactam followed by UV-Vis spectroscopy (230 nm). It counts as biochemical. The settings on record: 1 mM avibactam, 5 mM HEPES pH 7.5, 20 μM ZnCl2, 30°C. On the procedure:
A spectrum between 210 and 280 nm was then immediately recorded. After 20 h at 20°C, another spectrum was recorded; the appearance of this spectrum was not modified after further incubation. […] Two buffers were used: 5 mM HEPES (pH 7.5) and 50 mM cacodylate (pH 7.0), both containing 20 μM ZnCl2. […] Due to the low activity observed with NDM-1, incubation was continued overnight (20 h) ([23]).
For kinetic analyses, we first employed a spectroscopic assay for avibactam hydrolysis. […] With CphA, the ZnCl2 concentration was reduced to 1 μM since the binding of a second Zn(II) ion is inhibitory for most B2 MBLs ([38], [39]). […] Due to the very low activity observed with NDM-1, incubation was continued overnight (20 h). Because of the very low reaction rates, it was not possible to directly determine the Km and v values.

The results in this text go back to PMC5038302 (Antimicrobial Agents and Chemotherapy, 2016).

With `NC(=O)[C@@H]1CC[C@@H]2CN1C(=O)N2OS(=O)(=O)O` [avibactam], the “v0/E0, HEPES buffer” value was 1 ± 0.2 min⁻¹.
